Laboratory results published in the supplement of paper PMC8728848.
Shown is part of a subset that was picked to be rich in the strongest signals.

Tested on: Neu5Ac(a2-6)Gal(b1-4)GlcNAc(b1-2)Man(a1-3)[Neu5Ac(a2-6)Gal(b1-4)GlcNAc(b1-2)Man(a1-6)]Man(b1-4)GlcNAc(b1-4)GlcNAc
Assay: glycan array binding signal (z-score within array); higher = stronger binding
Conditions: glycan notation: IUPAC condensed, linker removed
Procedure, shortened: (§1)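 Columns mapping to the same glycan were averaged after glycan names were converted to IUPAC-condensed notation. The data come from 3228 arrays in the Consortium for Functional Glycomics database, limited to those with an available protein sequence. Binding is reported as a within-array Z-score averaged across arrays of one protein sequence and across linkers.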

Substance	glycan array binding signal (z-score)
M-Ficolin G221F A256V (Homo sapiens) (chain not printed)	-0.284
Siglec-2 (Homo sapiens) (chain not printed)	5.85
Meso764 (Homo sapiens) (chain not printed)	0.293

Tested on: Neu5Ac(a2-6)Gal(b1-4)GlcNAc(b1-2)Man(a1-6)[Gal(b1-4)GlcNAc(b1-2)Man(a1-3)]Man(b1-4)GlcNAc(b1-4)GlcNAc
Assay: as above
Conditions: glycan notation: IUPAC condensed, linker removed
Procedure, shortened: as §1

Substance	glycan array binding signal (z-score)
M-Ficolin G221F (Homo sapiens) (chain not printed)	-0.154
Siglec-2 (Homo sapiens) (chain not printed)	0.022
M-Ficolin (Homo sapiens) (chain not printed)	-0.337
M-Ficolin A256V (Homo sapiens) (chain not printed)	-0.118

Tested on: Neu5Ac(a2-6)Gal(b1-4)GlcNAc(b1-3)Gal(b1-4)GlcNAc(b1-3)Gal(b1-4)GlcNAc
Assay: as above
Conditions: glycan notation: IUPAC condensed, linker removed
Procedure, shortened: as §1

Substance	glycan array binding signal (z-score)
H-Ficolin (Homo sapiens) (chain not printed)	1.29
CLEC-2 (Homo sapiens) (chain not printed)	-0.536
Siglec-2 (Homo sapiens) (chain not printed)	3.68
